We go through 85 compounds from paper PMC4336329 (PLoS ONE, 2015).

Molecules are shown by their SMILES. Hit rate of the full screen: of about 310,000 compounds, about 2,200 (0.71%) showed an effect of 50% or more. Effects have a minus sign here. Some of the results follow.

The target in the test is human ether-à-go-go-related gene (hERG) potassium channel (human, UniProt Q12809). Nature of the test: primary screen, population patch clamp on CHO cells stably expressing hERG.
human ether-à-go-go-related gene (hERG) potassium channel, sequence (Q12809 whole entry, looked up): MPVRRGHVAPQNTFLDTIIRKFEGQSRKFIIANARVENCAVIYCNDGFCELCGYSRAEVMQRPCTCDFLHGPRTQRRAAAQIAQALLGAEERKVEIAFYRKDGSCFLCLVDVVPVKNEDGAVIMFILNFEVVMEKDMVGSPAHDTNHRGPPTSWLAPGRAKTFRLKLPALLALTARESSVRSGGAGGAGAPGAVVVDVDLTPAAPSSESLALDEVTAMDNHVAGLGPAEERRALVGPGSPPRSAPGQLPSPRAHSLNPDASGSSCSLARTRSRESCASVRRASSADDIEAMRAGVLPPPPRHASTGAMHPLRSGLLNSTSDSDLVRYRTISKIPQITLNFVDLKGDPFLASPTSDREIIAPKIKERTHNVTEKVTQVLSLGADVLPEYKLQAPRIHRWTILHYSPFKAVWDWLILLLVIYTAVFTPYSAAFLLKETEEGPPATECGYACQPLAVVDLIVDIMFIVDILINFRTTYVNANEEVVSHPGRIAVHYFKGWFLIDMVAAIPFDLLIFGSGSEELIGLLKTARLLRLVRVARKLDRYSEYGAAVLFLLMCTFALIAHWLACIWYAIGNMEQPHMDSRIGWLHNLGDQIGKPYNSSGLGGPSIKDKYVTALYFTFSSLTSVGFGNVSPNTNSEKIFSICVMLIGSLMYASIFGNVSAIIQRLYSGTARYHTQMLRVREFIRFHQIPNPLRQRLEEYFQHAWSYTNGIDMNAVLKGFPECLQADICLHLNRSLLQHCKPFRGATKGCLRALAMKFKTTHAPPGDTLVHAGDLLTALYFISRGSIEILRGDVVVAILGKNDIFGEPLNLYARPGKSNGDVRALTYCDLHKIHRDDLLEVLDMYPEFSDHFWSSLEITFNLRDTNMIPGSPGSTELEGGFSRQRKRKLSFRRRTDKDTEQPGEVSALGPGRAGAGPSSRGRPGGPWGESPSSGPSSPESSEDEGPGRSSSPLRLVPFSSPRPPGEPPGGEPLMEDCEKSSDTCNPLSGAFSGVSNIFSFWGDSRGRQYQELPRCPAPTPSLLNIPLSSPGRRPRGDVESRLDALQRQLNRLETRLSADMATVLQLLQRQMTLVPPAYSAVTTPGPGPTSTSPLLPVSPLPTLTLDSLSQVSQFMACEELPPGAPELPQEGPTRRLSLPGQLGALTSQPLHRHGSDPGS
As to `COc1ccc(Nc2nccc3c2nnn3C)cc1`, the “hERG current change (%, negative = inhibition) at 1uM” value is 14%.
As to `Cc1cccc2cc(COC(=O)C(C)C)c(=O)[nH]c12`, the “hERG current change (%, negative = inhibition) at 1uM” value is on record as -23.5%.
The figure for `O=S(=O)(c1ccc(Cl)cc1)N1CCN=C1SCc1cccc(Cl)c1` is -0.0895%.
Consider `O=C(Nc1nnc(COc2ccc(Cl)cc2)s1)c1ccco1`, for which the “hERG current change (%, negative = inhibition) at 1uM” value is on record as 10.6%.
As for `CC(C)C[C@H]1C(=O)N2CCCC2[C@]2(O)O[C@](NC(=O)[C@@H]3C=C4c5cccc6[nH]cc(c56)CC4N(C)C3)(C(C)C)C(=O)N12` (stereo partly shown), the “hERG current change (%, negative = inhibition) at 1uM” value was 9.16%.
For `COc1ccc(OCc2cc(C(=O)NCCc3ccccc3)no2)c(Cl)c1`, the “hERG current change (%, negative = inhibition) at 1uM” value was found to be 8.23%.
For `Cl.O=C(c1cccc(F)c1)N1CCC(O)(c2cccnc2)CC1` the value was 18.7%; for `CSCCC1C(=O)OC2(C)CC(C)(C)NC(=S)N12` (stereo not shown), -4.56%.
With `CC1CC(C)(C)NC(C)c2ccccc21.Cl` (stereo not shown), the “hERG current change (%, negative = inhibition) at 1uM” value is on record as 13.6%.
For `O=C(CSc1ccccc1)Nc1ccc(N2CCOCC2)c(F)c1` the value was 6.12%.
Take `COCCCN(C(=O)C(C)Oc1ccc(Br)cc1)c1c(N)n(Cc2ccccc2)c(=O)[nH]c1=O` (stereo not shown): the “hERG current change (%, negative = inhibition) at 1uM” value is on record as 27%.
Consider `CC(=O)O[C@@H]1/C=C/[C@](C)(O)C[C@@H](C)C/C=C/[C@H]2[C@@H]3O[C@]3(C)[C@@H](C)[C@H]3[C@H](Cc4ccccc4)NC(=O)[C@@]312`, for which the “hERG current change (%, negative = inhibition) at 1uM” value is on record as 14.4%.
For the compound `Cc1ccc(C(=O)Oc2ccc(C(=O)COC(=O)c3cnccn3)cc2)cc1`, the “hERG current change (%, negative = inhibition) at 1uM” value is recorded as -2.44%.
For `CCOC(=O)C1(c2ccccc2)CCN(CC(=O)Nc2cccc3ccccc23)CC1` the value was 9.92%; for `COc1ccccc1OCC(=O)N(Cc1nnc(-c2ccccc2Cl)o1)C1CC1`, -8.53%.
For `COc1cc(/C=N/NC(=O)Cc2ccccc2)cc([N+](=O)[O-])c1O` the value was 12.3%; for `O=C(CSc1ccccc1)NCc1cccnc1`, 7.54%; for `COCCNC(=O)Cn1ncc2ccsc2c1=O`, 8.96%.
Turning to `CCOc1ccccc1NC(=O)N1CCC(C(=O)c2ccc(F)cc2)CC1`, the “hERG current change (%, negative = inhibition) at 1uM” value is reported as 9.5%.
Turning to `COc1nc2ccc(C)cc2cc1-c1noc(-c2cccnc2)n1`, the “hERG current change (%, negative = inhibition) at 1uM” value was determined as 13.9%.
For `O=C(OCC(=O)N1CCN(C(=O)c2ccco2)CC1)c1cc(-c2ccc(Cl)c(Cl)c2Cl)nc2ccccc12` the value was 9.57%; for `CCOC(=O)C1CCN(C2CCN(C(=O)c3oc4c(C)c(C)ccc4c3C)CC2)CC1`, -15.6%.
The figure for `O=C(CCc1nc2ccccc2c(=O)[nH]1)NNC(=O)c1cccc(Cl)c1` is 4.12%; for `Cc1[nH]c(=O)[nH]c(=O)c1S(=O)(=O)N1CCCC(C(=O)N2CCC(Cc3ccccc3)CC2)C1` (stereo not shown) it is 20.5%.
The figure for `CC(=C/c1ccccc1)/C=N/Nc1nc(N2CCOCC2)nc(N2CCOCC2)n1` is 6.89%; for `Cc1ccc(C2CC(c3ccccc3)=NN2C(=O)CSc2nnc(-c3ccc(Cl)cc3)o2)o1` (stereo not shown) it is 8.78%.
On to `Cn1cnnc1SCc1cccc(Br)c1`, for which the “hERG current change (%, negative = inhibition) at 1uM” value came out at 8.01%.
For `Cc1cnc(NC(=O)CCCSc2nc3ccccc3s2)s1` the value was 5.03%; for `CCn1ccnc1CN(C)C(=O)c1cc(COc2c(F)cccc2F)on1`, 10.1%; for `Cc1cc(=O)oc2cc(OCC(=O)N3CCN(c4ccccc4)CC3)ccc12`, -2.58%.
As for `COC(=O)C1=C(c2ccc(OC)c(OC)c2)C[C@@H]2CC[C@H]1N2C(=O)NCCCOC(C)C`, the “hERG current change (%, negative = inhibition) at 1uM” value was found to be 12.5%.
The figure for `Nc1nnc(SCc2ccc(Cl)cc2)s1` is 6.23%.
The figure for `COc1ccccc1C(=O)COC(=O)c1cc(=O)[nH]c2ccccc12` is 5.36%; for `COc1ccc(-n2c(=O)[nH]c3cc(C(=O)NCCc4ccc(Cl)cc4)ccc3c2=O)cc1OC` it is 10.6%.
The figure for `Nc1ccc(C(=O)Nc2ccc(NC(=O)c3ccco3)c(O)c2)cc1` is 13.5%; for `CCCCN(CC)CCNc1c(N2CCN(C(=O)OCC)CC2)c(=O)c1=O` it is 10.5%; for `CCN1N=C(c2cc(Cl)sc2Cl)CSC1=O` it is 7.73%.
For `CN(Cc1cccc(F)c1)C(=O)c1cc(=O)[nH]c2ccccc12`, the “hERG current change (%, negative = inhibition) at 1uM” value was found to be 11.2%.
For `O=C(Cn1c(=O)oc2cc(S(=O)(=O)N3CCCC3)ccc21)N1CCN(c2ccccn2)CC1` the value was 8.69%; for `O=c1cc(-c2ccc(Cl)cc2)nc(N2CCN(c3ccccc3)CC2)[nH]1`, 13.4%.
The figure for `COc1ccc2ccccc2c1CNc1nnnn1C` is 7.13%; for `Cc1ccc(S(=O)(=O)n2cnc3ccccc32)cc1[N+](=O)[O-]` it is 15%.
Take `O=C(N=Nc1c(O)n(Cc2ccccc2)c2ccccc12)c1ccc(O)cc1`: the “hERG current change (%, negative = inhibition) at 1uM” value is listed as 9.07%.
For `CCN(CC)N=Nc1ccc(S(N)(=O)=O)cc1` the value was 20.2%.
For `COCCCNC(=O)c1nc2ccccc2c(=O)n1NC(=O)Nc1c(Cl)cccc1Cl` the value was 13.8%; for `N#Cc1c(/N=C/c2cc3ccccc3s2)sc2c1CCC2`, 15.2%.
The figure for `COc1cc(OC)nc(-n2ncc(Br)c(Br)c2=O)n1` is 2.19%; for `O=C(Nc1cccc(S(=O)(=O)NCc2ccco2)c1)c1cc(-c2ccccc2)nc2ccccc12` it is 5.14%.
Consider `O=C(Nc1ccc(Cl)cc1)OCc1cn(-c2ccccc2)nn1`, for which the “hERG current change (%, negative = inhibition) at 1uM” value is given as 8.57%.
The figure for `CCCCOC(=O)c1ccc(NC(=O)c2c(O)[nH]c(=O)[nH]c2=O)cc1` is 15.2%; for `COC(=O)c1c(CSc2cccc(C)c2)noc1C(=O)NCc1ccco1` it is 11.8%; for `Cc1cccc(-n2ncc3c(N(C)Cc4ccccc4)ncnc32)c1` it is 11.4%.
The figure for `N#Cc1c(C(F)(F)F)cc(-c2ccccc2)nc1SCc1nc(N)nc(N2CCOCC2)n1` is 1.9%; for `CC1(C)CC(=O)CC(C)(C)N1OC(=O)c1ccncc1` it is 4.95%; for `O=C1N/C(=N\N=C\c2cccs2)SC1Cc1cccc(Cl)c1` (stereo not shown) it is 6.94%.
`CCn1ccnc1CN(C)C(=O)c1cc(COc2ccc(Cl)cc2OC)on1`: the “hERG current change (%, negative = inhibition) at 1uM” value is given as 9.73%.
For the compound `O=C(N/N=C/c1ccc2c(c1)OCO2)c1sc2cc(Cl)ccc2c1Cl`, the “hERG current change (%, negative = inhibition) at 1uM” value came out at 1.99%.
The figure for `Cc1ccccc1N1CCN(C2CCCN(C(=O)CN3CCCC3=O)C2)CC1` (stereo not shown) is 13%; for `Cc1ccc(N/N=C(\Cc2nc3ccccc3[nH]2)c2ccccc2)cc1` it is -0.0659%.
The figure for `CCCCSc1nnc2[nH]c(=O)cc(N)n12` is -7.07%; for `Cc1ccnc2nc(C(=O)NCCc3ccc(F)cc3)nn12` it is 14.8%; for `COc1ccc(C)cc1NC(=O)C(OC(=O)c1ccc([N+](=O)[O-])o1)c1ccccc1` (stereo not shown) it is 18.6%.
The figure for `Cc1ccc(-c2nn(-c3cc(Cl)ccc3[N+](=O)[O-])c(=O)c3ccccc23)cc1` is -13.4%; for `COC(=O)C1=C(C(=O)OC)SC2(S1)C(C(=O)OC)=C(C(=O)OC)SC1=C2c2cccc(C)c2NC1(C)C` it is -79.1%; for `CCCN1CCN(CCCNC(=O)Cn2nc(-c3ccc(C)cc3)ccc2=O)CC1` it is -4.49%.
As for `COc1cc(C)c(S(=O)(=O)Nc2ccc(CC(=O)O)cc2)cc1C`, the “hERG current change (%, negative = inhibition) at 1uM” value was 0.39%.
For `Cc1cc(C(=O)Nc2ccccc2N2CCOCC2)c2ccccc2n1` the value was 3.74%; for `CCOc1ccc(CC(=O)C2C(=O)CCCC2=O)cc1OCC`, 2.94%.
For `O=C(COC(=O)/C=C/c1ccccc1)Nc1cccc(Oc2ccccc2)c1` the value was 10.3%.
The figure for `Cc1cccc([N+](=O)[O-])c1NC(=O)COC(=O)c1nc2nccc(C)n2n1` is 14.7%; for `O=C(OCc1cn(-c2ccc(Cl)c(Cl)c2)nn1)c1ccccc1` it is -1.94%; for `COc1cccc(N2C(=O)C3CCCN3C2c2cccs2)c1` (stereo not shown) it is 17.6%.
Consider `COC(=O)c1cccc(NC(=O)CCNC(=O)c2ccc([N+](=O)[O-])cc2)c1`, for which the “hERG current change (%, negative = inhibition) at 1uM” value is given as -8.03%.
Take `COc1ccc2sc(N(CCCN(C)C)C(=O)c3ccc(S(=O)(=O)N4CCCC4)cc3)nc2c1.Cl`: the “hERG current change (%, negative = inhibition) at 1uM” value is reported as 11.1%.
On to `CCOc1cc(C)ccc1OCc1nnc(SCC(=O)c2cccc([N+](=O)[O-])c2)n1CC`, for which the “hERG current change (%, negative = inhibition) at 1uM” value was -1.84%.
The figure for `CCOC(=O)C1CCCN(CC(=O)NC2=Nc3ccccc3N=C(C)C2c2ccccc2)C1` (stereo not shown) is -0.9%; for `O=C(CSc1nc2ncc(Br)cc2[nH]1)c1cccc([N+](=O)[O-])c1` it is 8.8%.
Take `Cc1cccc(OCCN2CSC(=S)N(C)C2)c1`: the “hERG current change (%, negative = inhibition) at 1uM” value came to 11%.
Turning to `CCCn1nc(C(=O)NNC(=O)c2cc(S(=O)(=O)NC)ccc2Br)c2ccccc2c1=O`, the “hERG current change (%, negative = inhibition) at 1uM” value came to 18.3%.
For the compound `O=C(CSc1ccc2nnc(CCNC(=O)c3ccccc3)n2n1)Nc1ccccc1F`, the “hERG current change (%, negative = inhibition) at 1uM” value is 10.8%.
Turning to `CC(=O)c1ccc(S(=O)(=O)N2CCCc3ccccc32)cc1`, the “hERG current change (%, negative = inhibition) at 1uM” value is given as 13.6%.
The figure for `Cc1cc(NS(=O)(=O)c2ccc(C(C)C)cc2)no1` is -11.6%.
As to `COc1ccc(CNc2nn[nH]n2)cc1OC`, the “hERG current change (%, negative = inhibition) at 1uM” value is on record as 15.2%.
The figure for `COc1ccc(-n2c(Cc3cc(=O)[nH]c(=O)[nH]3)nnc2SCC(=O)NC2CCCC2)cc1` is 11.2%; for `CC(C)(C)c1ccc(C(CC(=O)O)NS(=O)(=O)Cc2ccccc2)cc1` (stereo not shown) it is 14.4%.
